# From PubChem BioAssay AID1030 (National Center for Advancing Translational Sciences (NCATS), 2008)
# In all, about 220,000 compounds went through this assay and about 16,000 (7.3%) were called active. This list was built around the results that the source calls inconclusive (neither active nor inactive); the mix of calls is not that of the screen. Calls come from the whole dose curve; as a rule, active = well fitted inhibition curve with a large enough effect (not every such curve was filed as active); inconclusive = small, poorly fitted or top-dose-only effect, or another doubt; inactive = no such curve, though single readings can be large or run the other way. No potency is given beside an inconclusive call; the fits are too rough.
# Biological target: Aldehyde dehydrogenase 1A1 (Homo sapiens) (UniProt P00352)
# UniProt P00352, sequence (P00352 whole entry, looked up): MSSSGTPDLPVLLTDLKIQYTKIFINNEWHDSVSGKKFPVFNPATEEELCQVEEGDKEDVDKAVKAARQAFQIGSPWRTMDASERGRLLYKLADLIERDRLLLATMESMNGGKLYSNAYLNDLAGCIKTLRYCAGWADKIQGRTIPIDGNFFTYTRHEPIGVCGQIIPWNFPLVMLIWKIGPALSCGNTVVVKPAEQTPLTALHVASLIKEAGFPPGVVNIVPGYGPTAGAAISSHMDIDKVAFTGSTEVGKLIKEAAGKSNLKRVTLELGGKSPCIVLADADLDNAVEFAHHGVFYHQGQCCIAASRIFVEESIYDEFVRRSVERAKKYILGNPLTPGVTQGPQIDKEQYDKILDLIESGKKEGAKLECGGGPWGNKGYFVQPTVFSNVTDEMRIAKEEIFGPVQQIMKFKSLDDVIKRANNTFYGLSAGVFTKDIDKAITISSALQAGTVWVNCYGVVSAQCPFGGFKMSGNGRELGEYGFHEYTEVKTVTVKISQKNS
# Assay: qHTS Assay for Inhibitors of Aldehyde Dehydrogenase 1 (ALDH1A1);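 for activity, negative = inhibition: plate controls were no enzyme wells and a reference inhibitor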
# Conditions: Purified ALDH1A1, NADH fluorescence, propionaldehyde substrate; series mostly up to 75.3 µM
# Potency is the fitted concentration of half-maximal effect; tags give direction and shape of the fitted curve.
SMILES,Potency,"activity, negative = inhibition"
C=CCOC(=O)C(=O)/C=C/c1csc2ccccc12,active: 10 µM,–
CN(C)c1ccc(-c2nc3ccccc3n2C)cc1,"inconclusive [inhibitor, partial curve]",–
Cc1ccc(N=Nc2c(C)[nH]n(C(N)=S)c2=O)cc1,"inconclusive [inhibitor, partial curve]",–
Cc1cc(=O)oc2cc(OCc3ccc(C(=O)N4CCN(c5ccccc5)CC4)cc3)ccc12,"inconclusive [inhibitor, partial curve]",–
O=[N+]([O-])c1ccc(/C=N/n2c(-c3cccnc3)n[nH]c2=S)cc1,active: 2.82 µM,–
CCc1ccc(OCC(=O)N/N=C(\C)c2ccccc2OC(F)F)cc1,"inconclusive [inhibitor, partial curve]",–
CCC(C)OC(=O)C1=C(C)NC2=C(C(=O)C(C(=O)OC)C(C)C2)C1c1ccc(N(C)C)cc1 (stereo not drawn),"inconclusive [inhibitor, partial curve]",–
CC(C)=NNc1nc(-c2ccccc2)c(C)s1,"inconclusive [inhibitor, single point]",–
Oc1cc(-c2ccccc2)c2ccccc2c1,"inconclusive [inhibitor, partial curve]",–
O=C(Cc1ccccc1)Nc1ccc(NC(=O)c2cccs2)cc1Cl,inactive,–
Cc1ccc(-c2nc(CN(Cc3c(C)nn(C)c3C)C(C)C)c(C)o2)o1,"inconclusive [inhibitor, single point]",–
CC(C)CC(=O)N1CCN(S(=O)(=O)c2ccccc2)CC1,"inconclusive [inhibitor, single point]",–
CS(=O)(=O)N1N=C(c2ccc3nccnc3c2)CC1c1ccccc1 (stereo not drawn),"inconclusive [inhibitor, partial curve]",–
COc1ccc(S(=O)(=O)NC(C)C)cc1-n1cnnn1,"inconclusive [inhibitor, partial curve]",–
Cc1ccc(-c2noc(CSc3nnc(-c4ccncc4)n3-c3ccc(C)cc3)n2)cc1,inactive,–
Cc1ccc(-c2c(C)c(-c3ccc(F)cc3)nc(N)c2C#N)o1,"inconclusive [inhibitor, partial curve]",–
CC(C)CNC(=O)c1cc(-c2ccc(Br)cc2)on1,"inconclusive [inhibitor, single point]",–
c1ccn2c(Cc3nnc4ccccn34)nnc2c1,"inconclusive [inhibitor, single point]",–
CN=C1CC(C)(C)CC(=O)/C1=C(/O)CCCN1C(=O)c2ccccc2C1=O,"inconclusive [inhibitor, single point]",–
COc1ccc(/C(O)=C2/C(=O)C(=O)N(CCN(C)C)C2c2ccccn2)cc1OC (stereo not drawn),"inconclusive [inhibitor, single point]",–
CCOCC(=O)Nc1ccc(C(=O)Nc2ccccc2Cl)cc1,inactive,–
C[n+]1cn(CC(O)COCc2ccccc2)c2ccccc21 (stereo not drawn),inactive,–
COC(=O)NC(c1ccccc1)[C@@]1(C(=O)OC)CCCC1=O (stereo partly drawn),–,inactive: 12.2% [at 13.5 µM]
CC(C)NC(=O)N1CCC2(CC1)CCN(S(C)(=O)=O)CC2,inactive,–
O=C1C(Cl)=C(N2CCOCC2)C(=O)N1c1ccccc1Cl,"inconclusive [inhibitor, single point]",–

SMILES,Potency,"activity, negative = inhibition"
Cc1ccc(S(=O)(=O)N(C)C)cc1NC(=O)c1cc(=O)[nH]c2ccccc12,"inconclusive [inhibitor, partial curve]",–
C=CCn1cnc2c(c1=O)c1nc3ccccc3nc1n2Cc1ccccc1,"inconclusive [inhibitor, partial curve, poor fit]",–
Cc1c(C(=O)OCCOc2ccc(Br)cc2)sc(=S)n1C,inactive,–
COc1ccc(NC(=O)c2cc3ccc4c5ccccc5[nH]c4c3cc2O)cc1,inactive,–
CCOc1ccccc1C(=O)N[C@H](C(=O)OCc1cc(=O)oc2cc(C)ccc12)C(C)C,"inconclusive [inhibitor, single point]",–
COc1ccc(S(=O)(=O)N(C)CC(=O)N2CCCCCC2)cc1OC,"inconclusive [inhibitor, single point]",–
COc1ccccc1C1/C(=C(/O)c2ccc(Cl)cc2)C(=O)C(=O)N1CCN1CCOCC1 (stereo not drawn),"inconclusive [inhibitor, single point]",–
CN(c1ccc(OCC(=O)OCC(=O)NC2CCCC2)cc1)S(=O)(=O)c1ccc2ccccc2c1,"inconclusive [inhibitor, single point]",–
CC(=O)c1ccc(NCC(=O)N2CCN(c3ccccc3)CC2)cc1,"inconclusive [inhibitor, single point]",–
Cc1cccc(NC(=O)c2ccc(S(=O)(=O)N3CCOCC3)cc2)n1,inactive,–
CCCCC1=CC2=C(c3ccco3)C(=O)C(C)(OC(=O)c3cccs3)C(=O)C2=CO1 (stereo not drawn),inactive,–
O=C(N/N=C(\c1ccccc1)c1cccnc1)C(O)(c1ccccc1)c1ccccc1,"inconclusive [inhibitor, partial curve, poor fit]",–
O=C1c2ccccc2C(=O)N1CCCC(=O)N1CCCc2ccccc21,active: 14.1 µM,–
Cc1ccccc1CN1CCN(CC(=O)NCc2ccco2)C1=O,"inconclusive [inhibitor, single point]",–
COC(=O)c1c(N2C(=O)[C@H]3[C@@H](C2=O)[C@]2(C(=O)Nc4ccc(C)cc42)N2CCC[C@@H]32)sc(C)c1C,inactive,–
COc1ccc(N2CCN(Cc3cc(=O)oc4cc(C)c(Cl)cc34)CC2)cc1,"inconclusive [inhibitor, single point]",–
COc1ccc(C2=NOC(C(=O)NCCCn3ccnc3)C2)cc1 (stereo not drawn),inactive,–
COc1ccccc1NS(=O)(=O)c1cc(NC(=O)c2ccc3c(c2)OCCO3)ccc1C,"inconclusive [inhibitor, single point]",–
CCSc1nnc2c(Cl)cc(Cl)cn12,inactive,–
CN1CCN(S(=O)(=O)c2cccc(C(=O)Nc3sc4c(c3-c3nc5ccccc5[nH]3)CCCC4)c2)CC1,inactive,–
O=C(NC(NC(=S)Nc1ccccc1C(=O)O)C(Cl)(Cl)Cl)c1ccccc1 (stereo not drawn),"inconclusive [inhibitor, partial curve]",–
O=C(O)COc1ccc(NC(=O)c2ccc(NC(=O)c3ccco3)cc2)cc1,"inconclusive [inhibitor, single point]",–
Brc1ccc(C2=N[C@@H](Cc3ccccc3)CO2)cc1,inactive,–
Cc1noc(C)c1-c1cncnc1NCCN1CCOCC1,inactive,–
O=C(Nc1nccs1)c1cc(-c2ccco2)nc2ccccc12,"inconclusive [inhibitor, single point]",–

SMILES,Potency,"activity, negative = inhibition"
CC(=Nc1cc(C(=O)c2ccccc2)ccc1N)C1=C(O)CC(C)(C)CC1=O,active: 7.94 µM,–
Cc1nn2cc(-c3ncc(C(F)(F)F)cc3Cl)cnc2c1Br,"inconclusive [inhibitor, single point]",–
O=C(NC(=S)N1CCN(Cc2ccc3c(c2)OCO3)CC1)c1ccc(Cl)cc1,"inconclusive [inhibitor, single point]",–
Cc1cc(=O)n2[nH]c(-c3ccc(Cl)cc3)cc2n1,"inconclusive [inhibitor, partial curve]",–
O=C(Nc1nc(-c2ccc3c(c2)OCCO3)cs1)C1CCCC1,"inconclusive [inhibitor, single point]",–
COc1cccc(N/C(N)=N/c2nc(CSc3ccccn3)cc(=O)[nH]2)c1,"inconclusive [inhibitor, single point]",–
COc1ccccc1NC(=O)COC(=O)c1ccccc1OCC(=O)Nc1ccc(SC(F)F)cc1,inactive,–
Nc1ccc(Nc2nc(-c3ccncc3)cs2)cc1,active: 22.4 µM,–
COc1cccc(-c2nc(CS(=O)(=O)c3ccccc3)no2)c1,"inconclusive [inhibitor, single point]",–
NCCC[C@H](N)CC(=O)N[C@H]1CNC(=O)[C@@H]([C@@H]2C[C@H](O)N=C(N)N2)NC(=O)/C(=C/NC(N)=O)NC(=O)[C@@H](CO)NC(=O)[C@@H](CO)NC1=O,inactive,–
COc1ccc(OC)c(NC(=O)Cn2cccc2)c1,"inconclusive [inhibitor, partial curve]",–
CCCCCCCCCCCCC/C=C/[C@@H](O)[C@H](CO)N(C)C,inactive,–
CCCCCCC(=O)N(O)C1CC(=O)N(Cc2ccccc2)C1=O (stereo not drawn),active: 3.55 µM,–
O=C(N=NC(=O)c1ccc2c(O)n(C3CCCCC3)c(O)c2c1)c1cccnc1,active: 2.24 µM,–
Cc1ccc(NC(=O)C2CCCN(S(=O)(=O)c3c(C)noc3C)C2)cc1 (stereo not drawn),inactive,–
Nc1ccc(Nc2ccccc2)c(Cl)c1,active: 14.1 µM,–
O=C(CCC(=O)Nc1ccccc1)NNC(=O)c1ccco1,inactive,–
CCCC(=O)OCCNC(=O)c1cc2ccccc2oc1=O,"inconclusive [inhibitor, single point]",–
Cc1ccccc1OCC1CO1 (stereo not drawn),"inconclusive [inhibitor, single point]",–
CCOc1ccc(N2C(=O)Nc3ccccc3C2(O)C(=O)NCc2ccco2)cc1 (stereo not drawn),inactive,–
C/C(=C\c1ccccc1)CN1CCC(C(=O)N2CCC(C)CC2)CC1,active: 35.5 µM,–
COc1cc(/C=C2\CCc3ccccc3C2=O)cc(OC)c1OC,"inconclusive [inhibitor, partial curve]",–
Cc1ccc(S(=O)(=O)/C=C\C#N)cc1,active: 0.0112 µM,–
